Reference: publication PMC4764707
These are yes or no findings as the source states them, for the method shown. Binding seen in cells or lysates may run through a third protein. Some entries that bind do so weakly or less than the wild type.

Protein sequences, listed by entry. Tags and fused reporters are not part of them. Lines headed by an entry give the natural chain unless they say otherwise; changes in a name come on top.
UniProt O24456: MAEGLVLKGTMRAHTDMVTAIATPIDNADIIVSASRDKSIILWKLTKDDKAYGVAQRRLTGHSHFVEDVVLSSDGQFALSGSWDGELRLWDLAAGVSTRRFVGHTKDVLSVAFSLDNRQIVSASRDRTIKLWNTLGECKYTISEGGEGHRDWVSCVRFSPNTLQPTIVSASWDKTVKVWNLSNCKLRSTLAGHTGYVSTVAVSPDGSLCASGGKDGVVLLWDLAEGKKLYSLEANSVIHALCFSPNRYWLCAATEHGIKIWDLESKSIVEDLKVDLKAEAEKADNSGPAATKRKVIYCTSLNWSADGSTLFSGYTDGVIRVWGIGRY

Experiments:
[1] = target: Arabidopsis RACK1A, wild type, BiFC fusions nYFP-RACK1A and cYFP-RACK1A (Arabidopsis thaliana) (UniProt O24456); assay: split reporter; BiFC with nEYFP and cEYFP fusions, transient expression in onion epidermal cells by gene gun, 24 h in the dark, confocal microscopy
[2] = target: Arabidopsis RACK1A-Y248F, BiFC fusions nYFP-Y248F-RACK1A and cYFP-Y248F-RACK1A (Arabidopsis thaliana) (UniProt O24456); assay: as above
[3] = target: Arabidopsis RACK1A (Receptor for Activated C Kinase 1A), wild type, split-ubiquitin bait and prey fusions (Arabidopsis thaliana) (UniProt O24456); assay: split reporter; yeast split-ubiquitin system in S. cerevisiae JD53; bait fused to Cub-URA3, prey fused to NuI; interaction read as growth on 5-FOA (0.1%) plates, 30 C, 4 days, and as no growth on plates lacking uracil
[4] = target: Arabidopsis RACK1A-Y248F, split-ubiquitin bait and prey fusions (Arabidopsis thaliana) (UniProt O24456); assay: as above

Arabidopsis RACK1A, wild type, BiFC fusions nYFP-RACK1A and cYFP-RACK1A (from UniProt O24456 1-327)
binding [1]: binds

Arabidopsis RACK1A-Y248F, BiFC fusions nYFP-Y248F-RACK1A and cYFP-Y248F-RACK1A (from UniProt O24456 1-327)
binding [2]: no binding

Arabidopsis RACK1A (Receptor for Activated C Kinase 1A), wild type, split-ubiquitin bait and prey fusions (from UniProt O24456 1-327)
binding [3]: binds

Arabidopsis RACK1A-Y248F, split-ubiquitin bait and prey fusions (from UniProt O24456 1-327)
binding [4]: no binding

B1: Plastocyanin (AT1G20340), split-ubiquitin prey (protein, UniProt P42699 69-167)
chain: IEVLLGGGDGSLAFIPNDFSIAKGEKIVFKNNAGYPHNVVFDEDEIPSGVDVAKISMDEQDLLNGAGETYEVALTEPGTYSFYCAPHQGAGMVGKVTVN
binding [4]: no binding
binding [3]: binds
